The whole screen tested about 310,000 compounds, of which about 14,000 (4.5%) showed an effect of 50% or more. The effect is printed as a negative number. The list shows a part of the results.
What follows are molecules tested against human ether-à-go-go-related gene (hERG) potassium channel (human, UniProt Q12809) (assay: primary screen, population patch clamp on CHO cells stably expressing hERG).
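Note: peak tail current of the secondary pulse compared with the same well before compound.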

Sequence of human ether-à-go-go-related gene (hERG) potassium channel (Q12809 whole entry, looked up): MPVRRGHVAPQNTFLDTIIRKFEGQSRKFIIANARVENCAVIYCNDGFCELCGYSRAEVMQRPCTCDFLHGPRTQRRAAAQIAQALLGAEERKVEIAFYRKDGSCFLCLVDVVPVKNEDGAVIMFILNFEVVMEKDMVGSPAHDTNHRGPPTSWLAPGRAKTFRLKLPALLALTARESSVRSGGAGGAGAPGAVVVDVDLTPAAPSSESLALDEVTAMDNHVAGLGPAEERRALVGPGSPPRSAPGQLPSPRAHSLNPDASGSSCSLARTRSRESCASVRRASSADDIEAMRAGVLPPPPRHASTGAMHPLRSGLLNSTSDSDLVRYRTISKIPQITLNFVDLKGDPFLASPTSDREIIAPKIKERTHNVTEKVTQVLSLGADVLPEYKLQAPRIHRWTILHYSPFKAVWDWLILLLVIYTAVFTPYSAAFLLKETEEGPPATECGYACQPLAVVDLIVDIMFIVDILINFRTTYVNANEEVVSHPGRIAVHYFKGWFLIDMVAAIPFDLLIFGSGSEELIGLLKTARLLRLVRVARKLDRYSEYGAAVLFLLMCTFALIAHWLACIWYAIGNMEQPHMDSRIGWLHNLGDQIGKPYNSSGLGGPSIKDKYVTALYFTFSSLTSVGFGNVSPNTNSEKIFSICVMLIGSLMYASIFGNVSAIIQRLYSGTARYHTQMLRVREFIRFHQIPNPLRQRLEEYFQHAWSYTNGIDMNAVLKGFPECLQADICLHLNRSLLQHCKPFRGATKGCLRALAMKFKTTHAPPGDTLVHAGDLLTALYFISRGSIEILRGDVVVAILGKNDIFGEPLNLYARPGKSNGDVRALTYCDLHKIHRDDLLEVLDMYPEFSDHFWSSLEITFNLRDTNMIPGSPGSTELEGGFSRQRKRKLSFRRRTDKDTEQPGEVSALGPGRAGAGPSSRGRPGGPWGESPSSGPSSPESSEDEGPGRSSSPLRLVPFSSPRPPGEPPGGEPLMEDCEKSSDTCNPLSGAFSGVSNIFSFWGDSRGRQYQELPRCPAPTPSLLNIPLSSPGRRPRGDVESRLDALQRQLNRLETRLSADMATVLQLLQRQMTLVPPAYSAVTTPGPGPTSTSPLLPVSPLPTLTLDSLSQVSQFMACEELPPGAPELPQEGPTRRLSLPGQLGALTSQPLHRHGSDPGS

Row | Structure (SMILES) | hERG current change (%, negative = inhibition) at 10uM [%]
1 | CS(=O)Cc1cc(Oc2ccccc2)nc(-c2ccncc2)n1 (stereo not drawn) | -16.5
2 | CC1N=C2c3ccccc3N=C(SCc3cc(=O)n4cc(Cl)ccc4n3)N2C1=O (stereo not drawn) | -63.6
3 | CCn1c(SCc2ccccc2)nc2ccccc2c1=O | 2.76
4 | O=c1oc2ccccc2c(O)c1Sc1ccc(Cl)cc1 | 6.16
5 | c1ccc(Oc2nc(-c3ccccn3)nc3ccccc23)cc1 | -5.8
6 | Cc1[nH][nH]c(=O)c1C(c1c(C)[nH][nH]c1=O)c1cn(Cc2ccc(F)cc2)c2ccccc12 | -21.3
7 | O=C(O)CCCNc1cc(N2CCC3(CC2)OCCO3)c2noc3c2c1C(=O)c1ccccc1-3 | -16.3
8 | O=C(CCNS(=O)(=O)c1ccccc1F)N1CCN(C/C=C/c2ccccc2)CC1 | -47.8
9 | CC1CCN(c2c(NCC3CCC(C(=O)NC4CCCCCC4)CC3)c(=O)c2=O)CC1 (stereo not drawn) | 6.29
10 | Nc1nnc(SCCCC(=O)c2ccc(Br)cc2)s1 | 26.5
11 | CCCNCc1cc(OCC)c(OCC(=O)Nc2ccccc2)cc1Br | -24.7
12 | COc1cccc(NC(=O)C(NCCc2ccc(S(N)(=O)=O)cc2)c2ccccc2)c1 (stereo not drawn) | -35.2
13 | CCOC(=O)c1ccc(S(=O)(=O)NC2CCC(C)CC2)cc1 (stereo not drawn) | -16.5
14 | CC(=O)c1ccc(NC(=O)C2CCCNC2=O)cc1 (stereo not drawn) | 30.6
15 | CCC(=Nc1ccc(OC)cc1OC)c1c(O)n(C2CCCCC2)c(=O)[nH]c1=O | -5.51
16 | Cc1ccc(N(Cc2cc3ccc(C)cc3[nH]c2=O)C(=O)c2ccco2)cc1 | -7.29
17 | CCN(CC)c1ccc(NC(=O)Nc2cccc3ccccc23)cc1 | 7.7
18 | COc1cccc(CN2CC(C(=O)NC3CCCCCC3)CCC2=O)c1 (stereo not drawn) | 12.2
19 | O=C(COc1ncnc2sccc12)NC1CCCc2ccccc21 (stereo not drawn) | 9.25
20 | CCc1cccc(OC2OC(CO)C(O)C(O)C2NC(C)=O)c1 (stereo not drawn) | 0.684
21 | CC(=O)NCC1(O)CCCC(C)C1 (stereo not drawn) | 15.8
22 | COC(=O)Nc1ccc(Cn2cc(C(F)(F)F)ccc2=O)cc1 | 18.9
23 | Cc1cccc(N2CCN(C(=O)C3CCC(=O)N(Cc4ccccc4F)C3)CC2)c1C (stereo not drawn) | -29

Row | Structure (SMILES) | hERG current change (%, negative = inhibition) at 10uM [%]
24 | O=[N+]([O-])c1ccc2c(c1)c1ccccc1n2CCO | -11.4
25 | C=CCNC(=O)c1ccc(NC(=O)C2=CSCCO2)cc1 | 5.18
26 | COc1cc(C(=O)NCC(=O)NCC2COc3ccccc3O2)cc(OC)c1OC (stereo not drawn) | -4.95
27 | CC(NC(=O)c1ccccc1NC(=O)CN1CCc2ccccc2C1)c1ccccc1 (stereo not drawn) | 4.16
28 | c1ccc2c(c1)ncn2CCOCCOCCn1cnc2ccccc21 | -15.9
29 | Cc1cc(N2CCN(c3ccccc3)CC2)nc(-c2ccccc2)n1 | -30.9
30 | CC(=O)N[C@@H](C)c1nc2ccccc2n1CCNC(=O)[C@H]1CCCN1c1nc(CN2CCCCC2)cs1 | 4.85
31 | Cc1nc(NC(=O)COc2ccccc2)sc1C(=O)Nc1cccc(Cl)c1 | -5.63
32 | CCCCN1C(=O)C(=O)NC[C@@H]1C(C)O (stereo partly drawn) | 15.6
33 | O=C1CN(C(=O)CSc2nc3ccccc3c(=O)n2CC2CCCO2)c2ccccc2N1 (stereo not drawn) | -31.3
34 | COc1ccc(C(=O)Nc2nnc(-c3ccco3)s2)cc1 | 13.2
35 | Cc1ccc(-c2ccc(=O)n(CC(=O)Nc3ccc4c(c3)OCCO4)n2)cc1 | -8.73
36 | Cl.N[C@@H](Cc1ccc(O)cc1)c1nnc([C@H](CC(=O)O)NC(=O)C2CCNCC2)o1 | 7.64
37 | CCOc1ccc(N2CC(=O)N/C2=N\c2nc(C)cc(C)n2)cc1 | -18.5
38 | Cc1ccc2cc(CN(c3ccccc3)S(=O)(=O)c3ccccc3)c(=O)[nH]c2c1 | -2.83
39 | CCc1ccc(C(=O)N2CCC(c3nc4ccccc4s3)CC2)cc1 | -71.9
40 | COC(=O)NNC(=S)Nc1ccc(Br)cc1 | -5.79
41 | NC(=O)C1(S(=O)(=O)c2ccccc2)CCCCC1 | 13.2
42 | CC1=C(CC/C(C)=N/NC(N)=S)C(C)(C)CCC1 | 4.93
43 | COc1ccc2c(c1OC)C(=O)NC(C)=C(C(=O)OC(C)(C)C)C2O (stereo not drawn) | 6.49
44 | Cc1cc(NC(=S)N(Cc2ccc(Cl)cc2)Cc2ccc(C(=O)O)cc2)ccc1Cl | 29.1
45 | Cc1cc2c(c(=O)n1Cc1cccnc1)C(c1ccccc1)C(C#N)=C(N)O2 (stereo not drawn) | 22
46 | CCOc1ccc(C(=O)NCCNC(=O)c2ccc(OCC)cc2)cc1 | 9.15

Row | Structure (SMILES) | hERG current change (%, negative = inhibition) at 10uM [%]
47 | Cc1noc(C)c1N=Nc1ccc(Br)cc1C(=O)O | 5.19
48 | CCc1nnc(NC(=O)c2ccc(N(C)S(=O)(=O)c3ccccc3)cc2)s1 | -0.249
49 | Cc1ccc(O)c(-c2cc(C(=O)Nc3cccnc3)[nH]n2)c1 | 2.13
50 | Cc1ccc(-n2c(SCC(=O)OC(C)C)nnc2-c2ccncc2)cc1 | 5.96
51 | CCc1ccc(-c2nnn(CCC(=O)OC)n2)cc1 | -5.94
52 | O=C(N/N=C/c1c[nH]c2ccccc12)c1cc(-c2ccccc2)n[nH]1 | -0.363
53 | CCOC(=O)c1c(-c2ccccc2)oc2ccc(OCC(N)=O)cc12 | 14.8
54 | CCCCCCCCC1=NCCc2c1[nH]c1ccccc21.Cl | -79.2
55 | CC1CCC(C(C)C)C(OCC(O)CN2CCOCC2)C1.Cl (stereo not drawn) | -0.613
56 | COc1ccc(Nc2nc(NN)nc(Nc3ccc(OC)cc3)n2)cc1 | 4.64
57 | COc1cc(C2C(C(=O)c3ccc(C)o3)=C(O)C(=O)N2c2cc(C)on2)ccc1O (stereo not drawn) | 2.16
58 | Cc1nnc(NC(=O)c2ccc(-c3cccc(C(F)(F)F)c3)o2)s1 | 6.41
59 | Br.COc1ccc(-c2nc(C)sc2C)cc1 | -6.46
60 | O=C(Nc1sc2c(c1-c1nc3ccccc3[nH]1)CCCC2)C1CCCC1 | 6.08
61 | O=C(C1=C[C@H](c2ccc(C(F)(F)F)cc2)C[C@H](OCc2ccc(CO)cc2)O1)N1CCOCC1 | -26.7
62 | COc1ccc(C2(O)CCN(CC(=O)Nc3nc(-c4ccccc4)cs3)CC2)cc1 | -10.1
63 | CCOC(=O)c1ccc(NC(=O)Cn2nnc(-c3ccccc3F)n2)cc1 | 4.41
64 | CC1CCCC(C)N1C(=O)CSc1nnc(COc2ccc(F)cc2)o1 (stereo not drawn) | 6.64
65 | O=C1c2ccccc2NC(c2ccc([N+](=O)[O-])cc2)N1O (stereo not drawn) | -11.1
66 | CCn1cc([C@@H]2C[C@H]3CN(Cc4cccc(Cl)c4)C(=O)[C@]34CCCN24)c(C)n1 | -41.7
67 | Cn1ccsc1=NC(=O)c1cc(S(=O)(=O)N2CCOCC2)ccc1F | -6.62
68 | CC1(c2nnc(-c3ccc(F)cc3)o2)CC(c2cccnc2)=NO1 (stereo not drawn) | 9.6
69 | CCc1cccc2c(=O)c(C(=O)N3CCCCCC3)c[nH]c12 | -7.1

Row | Structure (SMILES) | hERG current change (%, negative = inhibition) at 10uM [%]
70 | CCOC(=O)c1c(C)[nH]c(C(=O)NNC(=O)c2ccccc2)c1C | -11.8
71 | O=C(Nc1nc(-c2ccc(Cl)s2)cs1)c1ccccc1 | -6.58
72 | CCn1c(SCC(=O)Nc2nc(C)c(C)s2)nc2cccnc21 | -1.75
73 | O=C(Cn1ncc2c(=O)oc3ccccc3c21)N1CCCc2ccccc21 | -36.3
74 | CCOC(=O)c1cc(-c2ccccc2)sc1NC(=O)C(C)C | 13.8
75 | C=CCN(c1cccc(C(F)(F)F)c1)S(=O)(=O)c1cccc(C(=O)OCC(=O)NC(N)=O)c1 | -6.14
76 | CCc1ccc(C(C(=O)NCc2ccccc2)N(C(=O)c2csnn2)C2CC2)cc1 (stereo not drawn) | -24.3
77 | CCOc1ccccc1NC(=O)C1CCC(CNc2c(N3CCOCC3)c(=O)c2=O)CC1 (stereo not drawn) | 8.54
78 | CN(CC(=O)Nc1ccc(N2CCOCC2)cc1)C(=O)c1cc(F)c(F)cc1Cl | -38.3
79 | COc1cc(NC(=O)/C=C/c2ccccc2[N+](=O)[O-])cc(OC)c1 | 7.65
80 | Cc1ccc(C(=O)NC(=S)Nc2ccc(N3CCOCC3)cc2)c(C)c1 | -13.7
81 | CC(=O)N(c1ccccc1C)C1CCCC1 | 7.62
82 | O=C(OCC(=O)N1CCc2ccccc21)c1ccccn1 | 13.1
83 | Cc1cccc(C(=O)NCCNC(=O)c2ccco2)c1 | 12.2
84 | CN(Cc1cccs1)C(=O)COc1ccc(-c2nnco2)cc1 | 14.2
85 | CCc1ccc(OCCOCC(O)CNC(C)(C)C)cc1.Cl (stereo not drawn) | -4.94
86 | CC(=O)C1C(c2ccc(F)c(F)c2)NC(=O)NC1(O)C(F)(F)F (stereo not drawn) | 11.8
87 | COc1cccc2c(C)c(C(=O)O)[nH]c12 | 2.19
88 | O=C(Nc1ccccn1)c1ccc(Cl)s1 | 4.9
89 | CC(c1ccccc1F)n1cc(C(=O)NCCc2ccco2)nn1 (stereo not drawn) | -11
90 | CCN1C(=O)c2cccc3c(S(=O)(=O)NCc4ccccc4)ccc1c23 | -26.1
